This note sets out measurements from publication PMC8892012.

Chains of the proteins cited; added tags and fusions are not shown. Lines headed by an entry give the natural chain unless they say otherwise; changes in a name come on top. A line that says so, or that is headed by a name, gives the form on record, which may keep a tag or linker.
UniProt Q9HC97: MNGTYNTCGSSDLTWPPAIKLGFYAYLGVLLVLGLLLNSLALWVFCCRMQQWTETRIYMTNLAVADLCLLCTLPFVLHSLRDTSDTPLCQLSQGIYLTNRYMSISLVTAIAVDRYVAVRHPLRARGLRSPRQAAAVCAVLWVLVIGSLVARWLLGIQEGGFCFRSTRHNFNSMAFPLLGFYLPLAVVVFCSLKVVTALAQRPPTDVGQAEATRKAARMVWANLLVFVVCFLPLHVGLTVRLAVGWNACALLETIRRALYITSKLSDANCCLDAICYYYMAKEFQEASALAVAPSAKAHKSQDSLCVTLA
hGPR35a-eYFP Ser303Ala (Q9HC97, form named): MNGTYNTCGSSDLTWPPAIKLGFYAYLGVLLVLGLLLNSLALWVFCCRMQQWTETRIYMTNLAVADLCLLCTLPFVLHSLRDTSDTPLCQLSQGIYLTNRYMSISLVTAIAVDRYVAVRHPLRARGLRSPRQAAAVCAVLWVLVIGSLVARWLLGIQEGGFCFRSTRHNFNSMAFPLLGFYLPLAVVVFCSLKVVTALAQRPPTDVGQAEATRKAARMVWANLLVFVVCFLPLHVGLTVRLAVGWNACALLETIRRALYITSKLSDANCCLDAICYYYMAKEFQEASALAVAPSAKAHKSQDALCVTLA
hGPR35a-eYFP Ser303Ala/Thr307Ala (Q9HC97, form named): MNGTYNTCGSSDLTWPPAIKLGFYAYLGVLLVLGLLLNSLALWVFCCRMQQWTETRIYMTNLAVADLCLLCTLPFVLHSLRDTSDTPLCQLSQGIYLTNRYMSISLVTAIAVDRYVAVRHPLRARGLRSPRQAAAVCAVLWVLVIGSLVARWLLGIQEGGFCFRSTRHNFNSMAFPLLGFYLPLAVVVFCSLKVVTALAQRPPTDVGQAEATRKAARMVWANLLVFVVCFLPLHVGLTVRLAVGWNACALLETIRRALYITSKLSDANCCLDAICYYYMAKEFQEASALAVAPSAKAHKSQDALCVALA
hGPR35a-eYFP Thr307Ala (Q9HC97, form named): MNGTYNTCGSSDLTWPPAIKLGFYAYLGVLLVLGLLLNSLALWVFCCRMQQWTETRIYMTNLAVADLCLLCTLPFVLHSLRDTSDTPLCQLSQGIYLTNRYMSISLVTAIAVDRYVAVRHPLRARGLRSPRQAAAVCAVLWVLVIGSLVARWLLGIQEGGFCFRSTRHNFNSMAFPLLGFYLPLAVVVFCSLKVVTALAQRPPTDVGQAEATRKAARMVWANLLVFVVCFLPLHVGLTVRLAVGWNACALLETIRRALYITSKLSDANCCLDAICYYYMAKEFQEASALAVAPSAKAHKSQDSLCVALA
hGPR35a-eYFP Ser300Ala (Q9HC97, form named): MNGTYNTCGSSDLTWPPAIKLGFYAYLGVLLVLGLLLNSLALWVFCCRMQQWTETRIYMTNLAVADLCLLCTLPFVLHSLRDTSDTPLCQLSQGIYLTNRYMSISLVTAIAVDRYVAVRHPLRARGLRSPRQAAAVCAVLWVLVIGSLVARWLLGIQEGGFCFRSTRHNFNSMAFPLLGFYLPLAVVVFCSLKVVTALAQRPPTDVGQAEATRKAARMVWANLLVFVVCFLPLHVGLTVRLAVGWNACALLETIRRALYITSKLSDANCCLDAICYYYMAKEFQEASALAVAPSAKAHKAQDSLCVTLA
hGPR35a-eYFP Ser294Ala (Q9HC97, form named): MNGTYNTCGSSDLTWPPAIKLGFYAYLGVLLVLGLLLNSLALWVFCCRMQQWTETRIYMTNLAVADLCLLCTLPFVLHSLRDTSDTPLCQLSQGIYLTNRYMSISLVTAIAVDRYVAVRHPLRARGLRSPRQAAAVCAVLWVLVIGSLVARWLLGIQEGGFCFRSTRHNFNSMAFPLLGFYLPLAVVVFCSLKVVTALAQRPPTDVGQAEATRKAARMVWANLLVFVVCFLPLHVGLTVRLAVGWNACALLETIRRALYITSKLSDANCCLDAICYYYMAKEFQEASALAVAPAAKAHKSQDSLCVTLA
hGPR35a-eYFP Ser287Ala (Q9HC97, form named): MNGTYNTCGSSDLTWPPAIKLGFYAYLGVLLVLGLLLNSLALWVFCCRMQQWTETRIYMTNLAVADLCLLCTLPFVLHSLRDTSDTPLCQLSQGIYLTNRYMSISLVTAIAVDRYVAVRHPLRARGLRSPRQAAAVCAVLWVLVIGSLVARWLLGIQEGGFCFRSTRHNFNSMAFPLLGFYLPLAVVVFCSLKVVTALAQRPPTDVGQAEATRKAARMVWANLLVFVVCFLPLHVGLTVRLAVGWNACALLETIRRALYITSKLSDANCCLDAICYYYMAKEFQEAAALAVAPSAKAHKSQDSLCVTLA
hGPR35a-eYFP Ser300Ala/Ser303Ala (Q9HC97, form named): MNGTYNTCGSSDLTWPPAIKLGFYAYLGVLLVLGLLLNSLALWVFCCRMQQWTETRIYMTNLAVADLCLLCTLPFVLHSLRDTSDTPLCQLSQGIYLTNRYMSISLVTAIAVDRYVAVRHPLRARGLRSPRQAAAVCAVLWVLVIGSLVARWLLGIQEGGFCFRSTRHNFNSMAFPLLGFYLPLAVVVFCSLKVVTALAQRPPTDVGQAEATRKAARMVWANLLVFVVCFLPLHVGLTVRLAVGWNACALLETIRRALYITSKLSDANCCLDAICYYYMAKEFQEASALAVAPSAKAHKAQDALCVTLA
hGPR35a-PDM-eYFP (Q9HC97, form named): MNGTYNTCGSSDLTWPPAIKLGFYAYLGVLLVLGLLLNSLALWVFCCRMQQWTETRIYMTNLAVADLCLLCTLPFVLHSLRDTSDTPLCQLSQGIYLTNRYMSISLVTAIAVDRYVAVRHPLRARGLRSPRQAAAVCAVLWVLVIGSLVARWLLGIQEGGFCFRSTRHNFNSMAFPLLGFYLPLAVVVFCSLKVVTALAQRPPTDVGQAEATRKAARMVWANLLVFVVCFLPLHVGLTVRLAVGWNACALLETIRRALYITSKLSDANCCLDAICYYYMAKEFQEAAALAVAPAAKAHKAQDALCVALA
UniProt Q9ES90: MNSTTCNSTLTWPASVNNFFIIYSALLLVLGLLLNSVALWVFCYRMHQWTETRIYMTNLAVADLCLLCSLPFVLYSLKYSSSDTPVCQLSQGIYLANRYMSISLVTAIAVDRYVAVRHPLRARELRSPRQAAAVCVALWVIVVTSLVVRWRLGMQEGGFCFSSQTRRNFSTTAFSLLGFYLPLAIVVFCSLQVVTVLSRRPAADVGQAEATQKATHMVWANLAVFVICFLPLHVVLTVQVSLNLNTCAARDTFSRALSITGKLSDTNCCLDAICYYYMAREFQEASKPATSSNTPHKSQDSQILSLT
mGPR35-eYFP mutant C (Ser298 and Ser301 to alanine) (Q9ES90, form named): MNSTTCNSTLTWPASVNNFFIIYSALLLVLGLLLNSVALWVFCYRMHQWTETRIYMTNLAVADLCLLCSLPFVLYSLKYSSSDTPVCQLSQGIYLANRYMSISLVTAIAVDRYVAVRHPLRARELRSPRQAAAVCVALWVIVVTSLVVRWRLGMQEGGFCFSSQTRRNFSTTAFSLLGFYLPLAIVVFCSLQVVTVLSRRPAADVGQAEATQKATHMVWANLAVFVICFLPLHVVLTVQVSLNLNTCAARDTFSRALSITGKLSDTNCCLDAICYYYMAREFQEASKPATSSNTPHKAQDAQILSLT

What all share (assay): FRET or BRET; HEK293T cells transiently co-transfected with FLAG-GPR35-eYFP (WT or mutant) and arrestin-3-RLuc in a 4:1 ratio; HBSS, 37 °C; coelenterazine-h 5 μM; agonist (zaprinast; for hGPR35a also pamoic acid) for 5 min; net BRET = 535 nm/475 nm minus the ratio of cells with arrestin-3-RLuc only
Background: BRET reads energy transfer from a luciferase to a nearby fluorophore.

Experiment [1] addresses hGPR35a-eYFP Ser303Ala (human) (UniProt Q9HC97).
Experiment [2] has as its target hGPR35a-eYFP Ser303Ala/Thr307Ala (human) (UniProt Q9HC97).
Experiment [3] has as its target FLAG-hGPR35a-eYFP (human) (UniProt Q9HC97).
Experiment [4] concerns the target hGPR35a-eYFP Thr307Ala (human) (UniProt Q9HC97).
The target of experiment [5] is hGPR35a-eYFP Ser300Ala (human) (UniProt Q9HC97).
For experiment [6], the target named is hGPR35a-eYFP Ser294Ala (human) (UniProt Q9HC97).
For experiment [7], the target named is hGPR35a-eYFP Ser287Ala (human) (UniProt Q9HC97).
The target of experiment [8] is hGPR35a-eYFP Ser300Ala/Ser303Ala (human) (UniProt Q9HC97).
Experiment [9] addresses FLAG-mGPR35-eYFP (mouse) (UniProt Q9ES90).
Experiment [10] has as its target mGPR35-eYFP mutant C (Ser298 and Ser301 to alanine) (mouse) (UniProt Q9ES90).
For experiment [11], the target named is hGPR35a-PDM-eYFP (human) (UniProt Q9HC97).

No constants are given. Whether binding was seen depends on the method and setting. Binding seen in cells or lysates may run through a third protein. Some entries that bind do so weakly or less than the wild type.

As for “arrestin-3 fused to Renilla luciferase (from UniProt P32121 1-409)”, the binding result is on record as “binds” in [1]; “binds weakly” in [2]; “binds” in [3]; “binds” in experiment [4]; “binds” in [5]; “binds” in experiment [6]. The binding result is on record as “binds” in experiment [7]; “binds weakly” in experiment [8]; “binds” in [9]; “no binding” in experiment [10]; “no binding” in experiment [11].
